The supplement of paper PMC10126150
Sequences with one replicate were seen in a single cluster, so their values are uncertain.

Tested on: ATP
Experiment: switch fluorescence ratio, 500 uM ATP over buffer (Cy3 cluster intensity, sum of 5 cycles each) (fold (ratio)); higher = stronger signal-on switching upon ATP binding; sequences stand for … in TCGTCGGCAGCGTCAGATGTGTATAAGAGACAGTTTTTTTTTTTTTTTTTTTTTTTTT…TC
Conditions: aptamer strand: ATP DNA aptamer (quencher-CACCTGGGGGAGTATTGCGGAGGAAGG + anchor), 100 nM annealed; ATP concentration: 500 uM; one replicate
How it was run: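 Per cluster, summed Cy3 intensity from the target cycles was divided by that from the buffer cycles to give the fluorescence ratio, then averaged per switch-domain sequence. Clusters outside 100-1000 RFU were excluded. The Cy3-labelled switching-strand clusters, on a modified Illumina MiSeq flow-cell, were annealed to 100 nM quencher-labelled ATP aptamer and imaged in selection buffer, then after 15 min with 500 uM ATP at 22 °C, for five cycles with NaOH stripping and re-annealing between them.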
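Note: ATP exposure 15 min at 22 °C before imaging.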

Row | Sequence | switch fluorescence ratio
1 | CATCGGTTTT | 1.08
2 | CATCGTCTGG | 1.02
3 | CATCGTGGTG | 0.996
4 | CATCGTTATA | 1.01
5 | CATCTCGGGT | 1.02
6 | CATCTGCGGT | 2.89
7 | CATCTGCGTC | 2.61
8 | CATCTGTCAG | 1.15
9 | CATCTTAGCG | 1
10 | CATCTTTACT | 1.01
11 | CATGAAGCAG | 1.13
12 | CATGAATGAA | 1.03
13 | CATGAATTA | 0.991
14 | CATGAGCTAA | 1.05
15 | CATGAGGCCT | 1
16 | CATGAGGGTG | 1.11
17 | CATGAGGGTT | 0.999
18 | CATGAGTGCT | 1.01
19 | CATGATAATT | 0.971
20 | CATGATCTGA | 0.972
21 | CATGCACCCT | 1.08
22 | CATGCATACC | 1.24
23 | CATGCATCGT | 1.05
24 | CATGCCATGG | 1.01
25 | CATGCCGCTG | 1.07
26 | CATGCGGGAT | 1.04

Row | Sequence | switch fluorescence ratio
27 | CATGCGGTCG | 0.991
28 | CATGCTACCT | 1.08
29 | CATGCTCACT | 1.06
30 | CATGGACACG | 1.02
31 | CATGGAGCAC | 1.41
32 | CATGGATCG | 0.959
33 | CATGGCTAGC | 1.01
34 | CATGGCTGGG | 1
35 | CATGGGCGTG | 0.988
36 | CATGGGGGGC | 0.996
37 | CATGGGTTTT | 1.03
38 | CATGGTACC | 0.979
39 | CATGGTCTTG | 0.988
40 | CATGTAGGGC | 1
41 | CATGTAGTTT | 0.975
42 | CATGTCCACC | 1.04
43 | CATGTCCATA | 0.994
44 | CATGTGCACG | 0.983
45 | CATGTGGTGC | 1.01
46 | CATGTTACGT | 1.08
47 | CATGTTCATC | 0.962
48 | CATGTTGAAT | 1.01
49 | CATGTTGTTA | 0.978
50 | CATTAAATGT | 1.01
51 | CATTACGTCT | 0.993
52 | CATTAGACC | 1.02

Row | Sequence | switch fluorescence ratio
53 | CATTAGGCCT | 1
54 | CATTAGGTGG | 0.988
55 | CATTAGGTTT | 0.98
56 | CATTAGTTTG | 0.994
57 | CATTATCCC | 0.974
58 | CATTATCGTT | 0.991
59 | CATTATTGTC | 0.975
60 | CATTCAGGAA | 0.983
61 | CATTCCTGAC | 1.49
62 | CATTCGGGCG | 1.01
63 | CATTCTGGCA | 1.04
64 | CATTGCGCTT | 1.07
65 | CATTGCTAAA | 1.04
66 | CATTGCTGTA | 0.963
67 | CATTGGTACC | 1.05
68 | CATTGTATAA | 0.998
69 | CATTGTGCTC | 0.964
70 | CATTGTGGTT | 1.01
71 | CATTGTTCTT | 0.965
72 | CATTTATACT | 1.01
73 | CATTTATCAA | 1.02
74 | CATTTATTAA | 0.99
75 | CATTTATTAC | 1.06
76 | CATTTGCATC | 1.23
77 | CATTTGCATG | 0.998
78 | CATTTGCCGG | 0.958

Row | Sequence | switch fluorescence ratio
79 | CATTTGTGC | 0.983
80 | CATTTGTTCG | 1.01
81 | CATTTTCTTA | 0.992
82 | CATTTTGTCA | 1.06
83 | CCAAAAATCA | 1.01
84 | CCAAAAGAGT | 0.997
85 | CCAAAATCAA | 1.02
86 | CCAAAGAAAG | 1
87 | CCAAAGAGCC | 1.07
88 | CCAAAGCCGC | 2.32
89 | CCAAAGCTAT | 1.61
90 | CCAAAGTACA | 1.22
91 | CCAAATAAAG | 1.01
92 | CCAAATGGAT | 1
93 | CCAAATTTTG | 0.971
94 | CCAACAGTA | 1.01
95 | CCAACAGTGT | 1.18
96 | CCAACATGG | 1
97 | CCAACCAGTG | 2.33
98 | CCAACGACGA | 2.9
99 | CCAACGGCAC | 2.18
100 | CCAACGGCCC | 1.1
101 | CCAACTCGTG | 1.01
